The values below come from PubChem BioAssay AID485344 (National Center for Advancing Translational Sciences (NCATS), 2010).

Among all 340,000 compounds or so, about 6,900 (2%) were called active. Rule as the data show it: active = inhibition above about 30%; inactive = below that, where a call was filed. The entries are a selection whose mix differs from that of the whole data set. Entries without a call were filed so in the source.

This assay has as its target D(2) dopamine receptor (Homo sapiens) (UniProt P14416). The assay is described as follows: HTS Assay for Allosteric Antagonists of the Human D2 Dopamine Receptor: Primary Screen for Antagonists. Also: 0% is about no effect. The following applies: HEK293 TREx D2 cells, calcium flux, dopamine EC80; at 10 µM; stronger effect = higher value. A digest of the protocol: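 In this primary screen, negative modulation is detected by tracking calcium flux after an EC80 dopamine challenge in inducible HEK293 T-REx D2 cells preexposed to test compound for 180 s.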
UniProt P14416, sequence (P14416 whole entry, looked up): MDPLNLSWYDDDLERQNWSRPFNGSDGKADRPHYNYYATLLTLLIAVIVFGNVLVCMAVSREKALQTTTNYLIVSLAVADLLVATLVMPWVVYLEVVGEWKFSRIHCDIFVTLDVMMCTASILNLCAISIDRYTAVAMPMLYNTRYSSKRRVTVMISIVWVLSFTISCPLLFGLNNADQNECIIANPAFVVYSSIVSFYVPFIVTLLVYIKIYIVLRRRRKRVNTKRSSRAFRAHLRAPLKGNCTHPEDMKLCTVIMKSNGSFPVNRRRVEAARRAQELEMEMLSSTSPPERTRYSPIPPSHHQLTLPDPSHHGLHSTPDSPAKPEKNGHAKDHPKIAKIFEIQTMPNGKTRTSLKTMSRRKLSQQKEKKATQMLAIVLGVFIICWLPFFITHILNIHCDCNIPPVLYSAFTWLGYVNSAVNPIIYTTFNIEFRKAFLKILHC
On the technique in general: Calcium assays in cells follow changes in intracellular calcium, usually with a dye or a luminescent sensor.
`COc1ccccc1CNC(=O)CCCCn1c(=O)c2ccccc2n(Cc2c(C)cc(C)cc2C)c1=O`: the inhibition (in general, the drop in the measured response relative to a control, in per cent) came to 1.34%. The value for `COc1ccc(NC(=O)NC2COc3ccccc3C2)c(OC)c1` (stereo not given) was 19.7%; that for `COC(=O)c1ccc(CN2CCC(CO)(Cc3ccc(OC)cc3)CC2)cc1` was active: 63.2%.

For the molecule `O=C(Cn1ccn(-c2cccc(Cl)c2)c(=O)c1=O)NCCc1ccccc1`, the inhibition was -10.9%.

Turning to `Cc1c(C(=O)Nc2nc(-c3ccc(F)cc3)ns2)oc2ccc(Br)cc12`, the inhibition was found to be 8.53%.

`COc1ccc(CNC(=O)CCc2cn(Cc3cc(C)ccc3C)c3ccccc23)cc1OC`: the inhibition is -1.88%. Consider `O=c1cc(-c2ccccc2)nc(SCc2nc(-c3ccc(C(F)(F)F)cc3)no2)[nH]1`, for which the inhibition came to 19%. As to `CS(=O)(=O)Nc1ccc(C(=O)N2CCN(c3ccccc3F)CC2)cc1`, the inhibition was active: 63.5%.

On to `CCCOc1ccc(-c2nc3ccccc3c(=O)o2)cc1`, for which the inhibition is -0.394%.

In the case of `CC(C)(C)c1ccc(-c2nc3cc(NC(=O)c4cc5ccccc5o4)ccc3o2)cc1`, the inhibition is -12.6%. The value for `COc1cccc(CNC(=O)CCC2CCCN(C/C=C/c3ccccc3OC)C2)c1` (stereo not given) was active: 32.5%; that for `Cc1cccc(NC(=O)C2CCN(S(=O)(=O)c3cccc4nsnc34)CC2)c1` was 15.8%. `CC1CCN(C(=O)Cn2cc(SCc3cccc(F)c3)c3ccccc32)CC1`: the inhibition was determined as 9.76%.

`CCOC(=O)c1c(NC(=O)CS(=O)(=O)c2ccc(C)cc2)sc2c1CCC(C)C2` (stereo not given): the inhibition was -7.44%. The value for `CCc1ccccc1NC(=O)N1CCN(c2nnc(C)c3c(C)n(-c4ccccc4)nc23)CC1` was -14.8%.

With `Cc1ccc2nc(-c3ccccc3O)c(Nc3ccccc3C)n2c1`, the inhibition amounted to 8.64%.

On to `O=C(C1CCC1)N1CCc2cc(S(=O)(=O)N3CCN(c4ccccc4)CC3)ccc21`, for which the inhibition was 5.25%.

For `CCOc1ccc(-n2cc(C(=O)Nc3ccccc3OCC)c3cc(OC)c(OC)cc3c2=O)cc1`, the inhibition was -2.46%. With `CC1CCN(c2nnc(-n3cccc3CNc3cccc(F)c3)s2)CC1`, the inhibition was 1.31%. `COc1cc2ccccc2cc1C(=O)N1CCN(c2nc3c(C)cc(C)cc3s2)CC1`: the inhibition is -21.9%. Take `COc1ccccc1OCC(=O)Nc1nnc2n1CCS2`: the inhibition turned out to be 18.6%.

For the molecule `CCCc1nnc(N2C(=O)c3oc4ccc(F)cc4c(=O)c3C2c2ccc(C(=O)OC)cc2)s1` (stereo not given), the inhibition was determined as 6.26%. Turning to `O=C(COc1ccccc1F)Nc1ccccc1OCc1cc(=O)n2ccccc2n1`, the inhibition was determined as 3.62%.

On to `CC(C)c1ccc(NC(=O)c2ccc(F)c(S(=O)(=O)N3CCCC3)c2)cc1`, for which the inhibition is -19.1%. Take `COC(=O)c1ccccc1NC(=O)CN(c1ccccc1OC)S(C)(=O)=O`: the inhibition was -4.97%. With `Cc1ccc(NC(=O)CSc2nc(-c3ccc(F)cc3)nc3c2Cc2c(CO)cnc(C)c2O3)cc1C`, the inhibition is -14.1%. On to `CN(Cc1ccccc1)C(=O)CCS(=O)(=O)c1cc(Br)cc2c1N(C(=O)C1CC1)CC2`, for which the inhibition was found to be 8.32%.

With `O=C(NC(=O)N1CCN(c2cccc(Cl)c2)CC1)c1ccc(Cl)cc1`, the inhibition is active: 56.8%.

Take `CCC1=Nc2cc(C(=O)NC(C)c3ccccc3)ccc2Sc2ccc(Cl)cc21` (stereo not given): the inhibition was -2.85%.

Regarding `COc1ccc2c(c1)CCc1sc(NC(=O)c3ccc(Cl)cc3)nc1-2`, the inhibition was -2.33%. The value for `COCCCNC(=O)CN1C(=O)COc2ccc(S(=O)(=O)N3CCCCCC3)cc21` was -0.116%. For the molecule `COc1ccc(-n2c(=O)c3ccccc3n(CC(=O)NCCc3ccccc3)c2=O)c(OC)c1`, the inhibition is -4.72%. Regarding `Cc1ccc(NC(=O)CCc2c(C)nc3c(-c4ccccc4)c(C)nn3c2C)c(C)c1`, the inhibition is -12.2%.

With `CC1CCN(S(=O)(=O)c2cn(CC(=O)Nc3ccc(F)c(Cl)c3)c(=O)c3ccccc23)CC1`, the inhibition was 16.5%. Consider `Cc1cccc(-n2cc(-c3ccccc3)c3c(NC(C)C)ncnc32)c1`, for which the inhibition was determined as 11.6%.

For `O=C(Nc1ccc(OC(F)(F)F)cc1)C1CCCN(S(=O)(=O)c2cccc3nonc23)C1` (stereo not given), the inhibition turned out to be 11.9%. Consider `CC(=O)N1c2ccc(S(=O)(=O)NCC3CCC(C(=O)Nc4ccccc4C)CC3)cc2CC1C` (stereo not given), for which the inhibition worked out at 7.34%. For `CCCCN(C)CCCNC(=O)c1cc(=O)[nH]c2ccc(S(=O)(=O)N3CCCCC3)cc12`, the inhibition was -3.46%. For `C=CCN=C1S/C(=C\c2ccc(Cl)cc2)C(=O)N1CC=C`, the inhibition is active: 79.6%. For `CCCN1C(=O)C(O)(CC(=O)c2ccc(CC)cc2)c2cc(Br)ccc21` (stereo not given), the inhibition stood at 13%. For the molecule `Cc1cccc(OCC(=O)Nc2nonc2-c2ccc(Br)cc2)c1C`, the inhibition was 2.42%. The value for `CCOc1ccc(CC(=O)Nc2ccc3c(c2)N(C)C(=O)c2ccccc2S3)cc1OCC` was -17.7%. Turning to `O=C(COc1ccc(Cl)cc1)Nc1sc2c(c1C(=O)Nc1cccc(Cl)c1)CCCC2`, the inhibition is -5.64%. On to `CCc1ccc(OCC(=O)N(Cc2ccc(C)cc2)Cc2ccco2)cc1`, for which the inhibition was -7.5%. The value for `Cc1cccc(C)c1-n1ncc(C(=O)NCc2ccc3c(c2)OCO3)c1C1CCN(C(=O)OC(C)(C)C)CC1` was 4.17%. As to `CCn1cc(C(=O)NCCc2ccc(Cl)cc2)c(=O)c2cc(S(=O)(=O)N3CCCCCC3)ccc21`, the inhibition was 8.42%.

On to `Cc1nn(CCCC(=O)Nc2cccc(C(F)(F)F)c2)c(=O)c2nn(-c3ccccc3)c(C)c12`, for which the inhibition is -12.4%. Take `CCN(CC)CCN(C(=O)c1ccc2c(c1)CCCC2)c1nc2ccc(C)cc2s1`: the inhibition was active: 46.5%. In the case of `COc1cc(NC(=O)Cn2cnc3sc(C)c(S(=O)(=O)N4CCC(C)CC4)c3c2=O)cc(OC)c1OC`, the inhibition is -8.47%. Turning to `Cc1ccc2c(=O)c(C(=O)c3ccccc3)cn(CC(=O)Nc3ccccc3C)c2n1`, the inhibition was -1.29%. As for `O=C(COc1ccccc1F)Nc1ccc2nc(SCC(=O)N3CCCC3)sc2c1`, the inhibition is -28%. Turning to `Cc1nc(-c2ccc(S(=O)(=O)NCc3ccc(OC(C)C)cc3)cc2)co1`, the inhibition turned out to be 16.3%.

As for `COc1ccc(C(=O)NCCn2cc(SCC(=O)Nc3ccc(F)cc3)c3ccccc32)cc1`, the inhibition was 16.9%. The value for `CCNc1ccc(-c2nc(-c3ccncc3)no2)cc1[N+](=O)[O-]` was -18.6%; that for `CCn1c(=O)cc(OCC(=O)N2CCN(c3cccc(Cl)c3)CC2)c2ccccc21` was -11.3%; that for `CCCOc1ccc(NC(=O)CC2C(=O)N(c3ccc(F)cc3)C(=O)N2CC(C)C)cc1` (stereo not given) was 18.8%. The value for `COc1cc(C(=O)N2CCC(c3nc4ccccc4s3)CC2)cc(OC)c1OC` was 4.82%; that for `CCCCOc1ccc(CNC(=O)C2CCCN(c3nnc(-n4c(C)ccc4C)s3)C2)cc1` (stereo not given) was -9.5%; that for `COc1ccc(C2=C(C)C(=NCc3ccc(OC(C)C)cc3)NS2(=O)=O)cc1` was 4.41%. With `Cc1ccc2c(c1)sc1nc(=O)n(-c3ccc(Cl)c(Cl)c3)c(=O)n12`, the inhibition came to 9.88%.
